Laboratory results: the supplement of paper PMC8728848
The list shows a part of the results.

Tests used:
Assay in all cases: glycan array binding signal (z-score within array); higher = stronger binding
Settings in all cases: glycan notation: IUPAC condensed, linker removed
Fuc(a1-2)Gal = target: Fuc(a1-2)Gal
Outline: (§1)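 Negative Z-scores can be read as non-binding. The Z-score is calculated within each array and then averaged across arrays of one protein sequence at different concentrations or buffers and across linkers. Arrays, 3228 in all, were curated from the Consortium for Functional Glycomics database and kept only where the protein sequence was available.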

Fuc(a1-2)Gal(b1-3)GalNAc = target: Fuc(a1-2)Gal(b1-3)GalNAc
Outline: as §1

[1] = target: Fuc(a1-2)Gal(b1-3)GalNAc(b1-3)Gal
Outline: as §1

[2] = target: Fuc(a1-2)Gal(b1-3)GalNAc(b1-3)Gal(a1-4)Gal(b1-4)Glc
Outline: as §1

[3] = target: Fuc(a1-2)Gal(b1-3)GalNAc(b1-4)[Neu5Ac(a2-3)]Gal(b1-4)Glc
Outline: as §1

Fuc(a1-2)Gal(b1-3)GlcNAc = target: Fuc(a1-2)Gal(b1-3)GlcNAc
Outline: as §1

[4] = target: Fuc(a1-2)Gal(b1-3)GlcNAc(b1-2)Man(a1-3)[Fuc(a1-2)Gal(b1-3)GlcNAc(b1-2)Man(a1-6)]Man(b1-4)GlcNAc(b1-4)GlcNAc
Outline: as §1

[5] = target: Fuc(a1-2)Gal(b1-3)GlcNAc(b1-3)Gal(b1-4)Glc
Outline: as §1

[6] = target: Fuc(a1-2)Gal(b1-3)GlcNAc(b1-3)[Gal(b1-4)[Fuc(a1-3)]GlcNAc(b1-6)]Gal(b1-4)Glc
Outline: as §1

[7] = target: Fuc(a1-2)Gal(b1-3)[Fuc(a1-4)]GlcNAc
Outline: as §1

[8] = target: Fuc(a1-2)Gal(b1-3)[Fuc(a1-4)]GlcNAc(b1-2)Man(a1-3)[Fuc(a1-2)Gal(b1-3)[Fuc(a1-4)]GlcNAc(b1-2)Man(a1-6)]Man(b1-4)GlcNAc(b1-4)GlcNAc
Outline: as §1

Fuc(a1-2)Gal(b1-4)Glc = target: Fuc(a1-2)Gal(b1-4)Glc
Outline: as §1

Fuc(a1-2)Gal(b1-4)Glc6S = target: Fuc(a1-2)Gal(b1-4)Glc6S
Outline: as §1

Fuc(a1-2)Gal(b1-4)GlcNAc = target: Fuc(a1-2)Gal(b1-4)GlcNAc
Outline: as §1

[9] = target: Fuc(a1-2)Gal(b1-4)GlcNAc(b1-2)Man(a1-3)[Fuc(a1-2)Gal(b1-4)GlcNAc(b1-2)Man(a1-6)]Man(b1-4)GlcNAc(b1-4)GlcNAc
Outline: as §1

[10] = target: Fuc(a1-2)Gal(b1-4)GlcNAc(b1-3)Gal(b1-4)GlcNAc
Outline: as §1

[11] = target: Fuc(a1-2)Gal(b1-4)GlcNAc(b1-3)Gal(b1-4)GlcNAc(b1-3)Gal(b1-4)GlcNAc
Outline: as §1

[12] = target: Fuc(a1-2)Gal(b1-4)GlcNAc6S
Outline: as §1

[13] = target: Fuc(a1-2)Gal(b1-4)[Fuc(a1-3)]GlcNAc
Outline: as §1

[14] = target: Fuc(a1-2)Gal(b1-4)[Fuc(a1-3)]GlcNAc(b1-2)Man(a1-3)[Fuc(a1-2)Gal(b1-4)[Fuc(a1-3)]GlcNAc(b1-2)Man(a1-6)]Man(b1-4)GlcNAc(b1-4)GlcNAc
Outline: as §1

[15] = target: Fuc(a1-2)Gal(b1-4)[Fuc(a1-3)]GlcNAc(b1-3)Gal(b1-4)[Fuc(a1-3)]GlcNAc
Outline: as §1

[16] = target: Fuc(a1-2)Gal(b1-4)[Fuc(a1-3)]GlcNAc(b1-3)Gal(b1-4)[Fuc(a1-3)]GlcNAc(b1-3)Gal(b1-4)[Fuc(a1-3)]GlcNAc
Outline: as §1

Fuc(a1-2)Gal6S(b1-4)Glc = target: Fuc(a1-2)Gal6S(b1-4)Glc
Outline: as §1

[17] = target: Fuc(a1-2)Gal6S(b1-4)Glc6S
Outline: as §1

[18] = target: Fuc(a1-2)Gal6S(b1-4)GlcNAc
Outline: as §1

Fuc(a1-2)[Gal(a1-3)]Gal = target: Fuc(a1-2)[Gal(a1-3)]Gal
Outline: as §1

[19] = target: Fuc(a1-2)[Gal(a1-3)]Gal(b1-3)GlcNAc
Outline: as §1

[20] = target: Fuc(a1-2)[Gal(a1-3)]Gal(b1-3)GlcNAc(b1-2)Man(a1-3)[Fuc(a1-2)[Gal(a1-3)]Gal(b1-3)GlcNAc(b1-2)Man(a1-6)]Man(b1-4)GlcNAc(b1-4)GlcNAc
Outline: as §1

[21] = target: Fuc(a1-2)[Gal(a1-3)]Gal(b1-4)Glc
Outline: as §1

[22] = target: Fuc(a1-2)[Gal(a1-3)]Gal(b1-4)GlcNAc
Outline: as §1

B1: Neuropilin-1 (Rattus norvegicus), Q9QWJ9 (protein)
chain: MERGLPLLCATLALALALAGAFRSDKCGGTIKIENPGYLTSPGYPHSYHPSEKCEWLIQAPEPYQRIMINFNPHFDLEDRDCKYDYVEVIDGENEGGRLWGKFCGKIAPSPVVSSGPFLFIKFVSDYETHGAGFSIRYEIFKRGPECSQNYTAPTGVIKSPGFPEKYPNSLECTYIIFAPKMSEIILEFESFDLEQDSNPPGGVFCRYDRLEIWDGFPEVGPHIGRYCGQKTPGRIRSSSGILSMVFYTDSAIAKEGFSANYSVLQSSISEDFKCMEALGMESGEIHSDQITASSQYGTNWSVERSRLNYPENGWTPGEDSYREWIQVDLGLLRFVTAVGTQGAISKETKKKYYVKTYRVDISSNGEDWITLKEGNKAIIFQGNTNPTDVVFGVFPKPLITRFVRIKPASWETGISMRFEVYGCKITDYPCSGMLGMVSGLISDSQITASNQGDRNWMPENIRLVTSRTGWALPPSPHPYINEWLQVDLGDEKIVRGVIIQGGKHRENKVFMRKFKIAYSNNGSDWKMIMDDSKRKAKSFEGNNNYDTPELRAFTPLSTRFIRIYPERATHSGLGLRMELLGCEVEVPTAGPTTPNGNPVDECDDDQANCHSGTGDDFQLTGGTTVLATEKPTIIDSTIQSEFPTYGFNCEFGWGSHKTFCHWEHDSHAQLRWRVLTSKTGPIQDHTGDGNFIYSQADENQKGKVARLVSPVVYSQSSAHCMTFWYHMSGSHVGTLRVKLHYQKPEEYDQLVWMVVGHQGDHWKEGRVLLHKSLKLYQVIFEGEIGKGNLGGIAVDDISINNHIPQEDCAKPTDLDKKNTEIKIDETGSTPGYEEGKGDKNISRKPGNVLKTLDPILITIIAMSALGVLLGAVCGVVLYCACWHNGMSERNLSALENYNFELVDGVKLKKDKLNPQSNYSEA
glycan array binding signal (z-score) (Fuc(a1-2)Gal): -0.27 | glycan array binding signal (z-score) (Fuc(a1-2)Gal(b1-3)GalNAc): -0.143 | glycan array binding signal (z-score) [1]: -0.219 | glycan array binding signal (z-score) [2]: -0.29 | glycan array binding signal (z-score) [3]: -0.274 | glycan array binding signal (z-score) (Fuc(a1-2)Gal(b1-3)GlcNAc): -0.315 | glycan array binding signal (z-score) [4]: 4.09 | glycan array binding signal (z-score) [5]: -0.269 | glycan array binding signal (z-score) [6]: -0.257 | glycan array binding signal (z-score) [7]: -0.151 | glycan array binding signal (z-score) [8]: 1.8 | glycan array binding signal (z-score) (Fuc(a1-2)Gal(b1-4)Glc): -0.288 | glycan array binding signal (z-score) (Fuc(a1-2)Gal(b1-4)Glc6S): -0.153 | glycan array binding signal (z-score) (Fuc(a1-2)Gal(b1-4)GlcNAc): -0.087 | glycan array binding signal (z-score) [9]: 7.46 | glycan array binding signal (z-score) [10]: -0.136 | glycan array binding signal (z-score) [11]: 0.184 | glycan array binding signal (z-score) [12]: -0.338 | glycan array binding signal (z-score) [13]: 0.038 | glycan array binding signal (z-score) [14]: 2.97 | glycan array binding signal (z-score) [15]: -0.294 | glycan array binding signal (z-score) [16]: -0.082 | glycan array binding signal (z-score) (Fuc(a1-2)Gal6S(b1-4)Glc): -0.096 | glycan array binding signal (z-score) [17]: -0.115 | glycan array binding signal (z-score) [18]: 0.115 | glycan array binding signal (z-score) (Fuc(a1-2)[Gal(a1-3)]Gal): -0.352 | glycan array binding signal (z-score) [19]: -0.339 | glycan array binding signal (z-score) [20]: 1.19 | glycan array binding signal (z-score) [21]: -0.154 | glycan array binding signal (z-score) [22]: -0.156
